This note sets out measurements from paper PMC12136788.

To fix the notation:
T1: UNK ZnF1-3 (human, UniProt Q9C0B0 31-174)
T1 sequence: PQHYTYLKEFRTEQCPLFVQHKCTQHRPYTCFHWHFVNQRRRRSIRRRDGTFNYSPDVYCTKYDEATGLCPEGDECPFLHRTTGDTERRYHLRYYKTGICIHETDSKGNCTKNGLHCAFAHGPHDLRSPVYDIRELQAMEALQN

B1: chr14:21319760:21319761:-_ENSMUSG00000021816_ENSMUST00000161445|mus_mus|FALSE|FALSE (ssRNA)
RNA: GGGAGUUCUACAGUCCGACGAUCAGCCAGCAGCAAAUCACCCUGGUGGUUUUUAAAGCAACUGGAGUACUCACAAUAAACUAAAAUUUCUCAUAAUAUCUACGUAACCUAUACAUGUUGUACCUGUACAUCAUAGGUCUAUAUCAACAGAGGAUUGAGCAUCA
B2: chr3:88113163:88113164:+_ENSMUSG00000001416_ENSMUST00000001452|mus_mus|motif|central (ssRNA)
RNA: GGGAGUUCUACAGUCCGACGAUCCAGUGCAAUGUUGCAUGCCAAGGAGGACCACCGACUGAUGACUUUUGUAGUAAUAGAGCGGUUGAUGAUGCUCAACAUCAUCUCACGGUUAUUGACAUCAACAGGAGUACUGAUUUUCUUCAACAGAGGAUUGAGCAUCA
B3: chr20:43533720:43533721:+_ENSG00000166913_ENST00000353703|hu_hu|FALSE|FALSE (ssRNA)
RNA: GGGAGUUCUACAGUCCGACGAUCAAAUGCCGUUUUUGCCAGGCUACAGGCCUUUUCAGGAGAGUUUAGAAUCUCAUAGUAAAAGACUGAGAAAUUUAGUGCCAGACCAAGACGAAUUGGGUGUGUAGGCUGCAUUUCUUUCUUCAACAGAGGAUUGAGCAUCA
B4: 97386883_97387435_3001_CDS_ENSMUSG00000038453_ENSMUST00000107596|mouse|control|control (ssRNA)
RNA: GGGAGUUCUACAGUCCGACGAUCCGCAGCCUCAACAGACACAGCUUUGUCCGUGUUUCUCUUGCUGGAAGCAUCCAGGCCUUUGGUGGGGUUAGUGCUCUUUGGGGUGAGAGGGGUGCCUUCGGCAGGUCCACUCAGCUCGUGCAACAGAGGAUUGAGCAUCA
B5: chr1:225611761:225611762:-_ENSG00000143815_ENST00000272163|hu_mus|hu_hu_hu_mus_True|98_108 (ssRNA)
RNA: GGGAGUUCUACAGUCCGACGAUCCCAGGCCAUCGACCUCUUACCACUUCACCCUCAACAAACUUCCUACUUGGCAUUUUCUAAAAUUAGUCUGGCCGCGCUCCGGCGGGAACUCCAGCCACUCCAGGACAGUCACCAGCAGCCCAACAGAGGAUUGAGCAUCA
B6: chr9:48874791:48874792:+_ENSMUSG00000032264_ENSMUST00000034803|mus_hu|FALSE|FALSE (ssRNA)
RNA: GGGAGUUCUACAGUCCGACGAUCAAGCAUCUCAGCCAAUGGGACAGUAGAUGUUUUUUCAUUUUCCAGGUCAGUGUCAAGUGGCAAAUCUAGAAGCUGUUUCUGGAGCACUUCUAGUACCAGUCUGAUCUUUGUAAAAACUUCCAACAGAGGAUUGAGCAUCA
B7: chr11:100581416:100581417:-_ENSMUSG00000019173_ENSMUST00000107364|mus_hu|motif|central (ssRNA)
RNA: GGGAGUUCUACAGUCCGACGAUCCCCGCCAUUGCCCGUCCAGCUGUAGUGGUCCAGAGAGCGUGCGGGUGGGGACUGGUGCGGUGCAAAGAGGCACUUAGUGGGGAGGGGGACCUCCAAGGCGGCUCCGGGGCGGCGGCGUUACAACAGAGGAUUGAGCAUCA
B8: chr5:21408736:21408737:-_ENSMUSG00000042453_ENSMUST00000161356|mus_mus|motif|central (ssRNA)
RNA: GGGAGUUCUACAGUCCGACGAUCGUUGACAGCAUUAUAAAUGGUGGCUUCAUGGAACUGGAACGGGGAGCAGCCAAUGCGGUUGGAAGAGGAAGGUAGGCACUGGGUCUGCACGAGCUGCCAGGAAUCGGACCUUGCAUCCUUCAACAGAGGAUUGAGCAUCA
B9: 54675199_54675611_138_CDS_ENSG00000135486_ENST00000330752|human|control|control (ssRNA)
RNA: GGGAGUUCUACAGUCCGACGAUCCCUGGAGCGCUUGGUGUUUGGAUCUCUCAUUACCACACAGUCCGUGAGCGUUCCCCAUUGCUCAAAAUGGCUCCUCAGGCUCUCAUCAGUUGUUUCAAAGCUCAACCCUCCAAUGAAGAGCAACAGAGGAUUGAGCAUCA
B10: chr1:130485734:130485735:-_ENSMUSG00000045382_ENSMUST00000052172|mus_mus|mus_mus_mus_hu_False|58_78 (ssRNA)
RNA: GGGAGUUCUACAGUCCGACGAUCGAUGAAGGAGUCGAUGCUGAUCCCAAUGUAGUAUGGCAGCCAGCAGGCGAAGAAAGCUAGGAUGAGGAUGACUGUGGUCUUGAGGGCCUUGCGCUUCUGGUGGCCCUUGGAGUGUGACAGCAACAGAGGAUUGAGCAUCA
B11: chr19:8913615:8913616:-_ENSMUSG00000071658_ENSMUST00000096259|mus_hu|mus_mus_mus_hu_False|8_48 (ssRNA)
RNA: GGGAGUUCUACAGUCCGACGAUCAGGGUACCAAAACCUUCUGCCUGAAAUGGGUGCCCCACCCAGUAGGGAGUUGCAGCUGAAAGUAUCCGUAGCAGAAGCAGUGACUAUACGAAAGGAGGCCCCUGAUGCUCAGAAGGCCAGCAACAGAGGAUUGAGCAUCA
B12: chr8:35894304:35894305:-_ENSMUSG00000031529_ENSMUST00000033929|mus_hu|FALSE|FALSE (ssRNA)
RNA: GGGAGUUCUACAGUCCGACGAUCCACAAAAAAACAAAAAACAAACAAACAAUAGCCAAUGAUGCAUGUCUGGCAAAUCAAAAACAAGCUUGUUGCCUGUCGUAUGUGUAUAUUUGUUAUAGACACGUCAUGCAUAACAAAACACAACAGAGGAUUGAGCAUCA
B13: chr17:16285243:16285244:+_ENSG00000170315_ENST00000535788|hu_hu|FALSE|FALSE (ssRNA)
RNA: GGGAGUUCUACAGUCCGACGAUCUCACAUUUUCGAUGGUGUCACUGGGCUCCACCUCAAGGGUGAUGGUCUUGCCGGUAAGGGUUUUCACGAAGAUCUGCAUUUUGACCUGUUAGCGGAUACCAGGAUCCUGCCAAUCACCAACAACAGAGGAUUGAGCAUCA
B14: 58046153_58046273_1771_CDS_ENSMUSG00000051243_ENSMUST00000114144|mouse|control|control (ssRNA)
RNA: GGGAGUUCUACAGUCCGACGAUCCCACUGAACUGCCGUGCCACCCCCCGCAGGACACAGAUAGAGUAGGCGCAGUGGCCGCCUCCCCGGCCGCCGCGCUCCGCUAGCACCAUCUGGCCCAGGGCCCCAGCGCGCAGCAAGAGGCAACAGAGGAUUGAGCAUCA

The other results are listed elsewhere or left out.

This test concerns the target T1, UNK ZnF1-3. As to the kind of experiment: nsRBNS (natural sequence RNA bind-n-seq); RBNS binding buffer (assumed for nsRBNS): 25 mM Tris pH 7.5, 150 mM KCl, 3 mM MgCl2, 0.01% Triton X-100, 500 ug/ml BSA, 20 U/ml SUPERase-In, 4 C; UNK is unkempt and MSI1 is Musashi-1; names of the RNAs are library labels; protein concentration not given here; high values mean tight binding.
Take B1: the binding signal came to 1.52 enrichment R.

On to B2, for which the binding signal stood at 0.875 enrichment R.

Turning to B3, the binding signal was found to be 1.08 enrichment R.

Regarding B4, the binding signal was determined as 0.922 enrichment R.

Take B5: the binding signal was 1.37 enrichment R.

On to B6, for which the binding signal was determined as 0.939 enrichment R.

As for B7, the binding signal was found to be 1.4 enrichment R.

The molecule B8 displayed a binding signal of 1.62 enrichment R.

As for B9, the binding signal is 0.908 enrichment R.

Molecule B10 showed a binding signal of 1.32 enrichment R.

B11 showed a binding signal of 0.907 enrichment R.

The molecule B12 yielded a binding signal of 0.724 enrichment R.

In turn, B13 displayed a binding signal of 0.668 enrichment R.

Molecule B14 registered a binding signal of 0.976 enrichment R.
